The whole screen tested about 310,000 compounds, of which about 14,000 (4.5%) showed an effect of 50% or more. Effects have a minus sign here. The list shows a part of the results.
target: human ether-à-go-go-related gene (hERG) potassium channel (human, UniProt Q12809); assay: primary screen, population patch clamp on CHO cells stably expressing hERG
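Note: peak tail current of the secondary pulse compared with the same well before compound.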

Chain of human ether-à-go-go-related gene (hERG) potassium channel (Q12809 whole entry, looked up): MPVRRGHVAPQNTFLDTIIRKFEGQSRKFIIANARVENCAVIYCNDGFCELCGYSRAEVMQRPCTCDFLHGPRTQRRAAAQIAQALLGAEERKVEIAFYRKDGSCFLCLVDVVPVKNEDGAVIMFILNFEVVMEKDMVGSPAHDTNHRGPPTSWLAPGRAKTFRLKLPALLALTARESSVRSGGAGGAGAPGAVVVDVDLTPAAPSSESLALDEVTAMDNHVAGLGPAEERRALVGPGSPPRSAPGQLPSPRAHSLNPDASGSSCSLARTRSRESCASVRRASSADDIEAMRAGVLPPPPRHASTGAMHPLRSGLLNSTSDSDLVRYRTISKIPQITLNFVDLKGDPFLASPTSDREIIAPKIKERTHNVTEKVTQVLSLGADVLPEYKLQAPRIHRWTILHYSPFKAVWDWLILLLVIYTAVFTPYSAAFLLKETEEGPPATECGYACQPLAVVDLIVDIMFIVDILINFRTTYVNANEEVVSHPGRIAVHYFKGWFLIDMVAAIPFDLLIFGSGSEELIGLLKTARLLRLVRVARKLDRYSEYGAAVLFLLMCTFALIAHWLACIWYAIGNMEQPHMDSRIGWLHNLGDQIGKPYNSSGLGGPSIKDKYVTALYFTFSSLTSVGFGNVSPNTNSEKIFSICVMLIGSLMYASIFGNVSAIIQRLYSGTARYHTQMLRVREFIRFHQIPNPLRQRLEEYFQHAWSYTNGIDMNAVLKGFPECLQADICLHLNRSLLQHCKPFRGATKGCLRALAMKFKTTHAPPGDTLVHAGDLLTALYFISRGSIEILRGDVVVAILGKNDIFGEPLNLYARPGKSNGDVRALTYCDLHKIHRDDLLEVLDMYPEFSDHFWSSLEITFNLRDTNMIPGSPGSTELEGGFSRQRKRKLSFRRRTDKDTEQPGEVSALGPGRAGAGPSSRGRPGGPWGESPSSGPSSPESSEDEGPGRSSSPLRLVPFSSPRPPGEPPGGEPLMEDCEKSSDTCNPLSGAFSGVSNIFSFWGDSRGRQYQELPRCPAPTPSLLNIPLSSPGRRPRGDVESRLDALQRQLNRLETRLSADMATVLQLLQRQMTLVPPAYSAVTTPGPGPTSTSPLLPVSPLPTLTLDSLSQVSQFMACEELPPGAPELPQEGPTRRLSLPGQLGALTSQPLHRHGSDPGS

SMILES	hERG current change (%, negative = inhibition) at 10uM [%]
CS(=O)(=O)c1ccc2nc(NC(=O)c3ccc(N4C(=O)CCC4=O)cc3)sc2c1	6.3
CCCCCCCCN1[C@@H](CC(=O)OCC)c2cc(C(F)(F)F)ccc2S1(=O)=O	-22.5
Cc1ccc(NC(=O)CN(C)S(=O)(=O)c2cccc3cccnc23)cc1	-15.6
CN(C)S(=O)(=O)c1ccc2nnn(O)c2c1	3.43
CCN(CC(=O)Nc1ccccc1C(F)(F)F)C(=O)c1ccccc1SCC(=O)N1CCCC1	5.87
CC1CCN(S(=O)(=O)c2ccc3c(c2)N(C)C(=O)CC(=O)N3C)CC1	-1.1
Brc1cccc(-c2nnc3n2CCCCC3)c1	13
CC1(C)Cc2nc3oc4c(NCCCN5CCOCC5)ncnc4c3cc2CO1	-14.5
Cc1cccc(C(=O)NCC(=O)NC2CCC(C)CC2)c1 (stereo not shown)	4.32
CCOc1cc(N2CCOCC2)c(OCC)cc1NC(=O)c1ccco1	-16.3
CSc1nnc(N2C(=O)C(O)=C(C(=O)c3ccco3)C2c2cccc(Cl)c2)s1 (stereo not shown)	7.39
CCC(=O)Nc1ccc(S(=O)(=O)Nc2cc(C)on2)cc1	18.2
Cc1ccc(C)c(OCC(=O)N(Cc2nnc(-c3ccccc3Cl)o2)C2CC2)c1	-20.9
O=C(O)C1CCN(C(=O)NC2CCCCC2)CC1	2.09
COc1ccc(CCN2CC(O)=C(c3nc(C)cs3)C2=N)cc1OC	-21.8
NS(=O)(=O)c1ccc(N2CCNCC2)cc1	9.82
COCCCC1CCN(C(=O)C2CCC(=O)N(C3CCCC3)C2)CC1 (stereo not shown)	13.5
O=C1C2CCCN2C(c2ccc(F)cc2)N1c1ccc(Cl)cc1 (stereo not shown)	-10.5
CCOC(=O)C(C)C(C)=O (stereo not shown)	18.5
CC(C)C[C@H](NC(=O)c1nc[nH]c1C(=O)N1CCc2ccccc2C1)C(=O)OC(C)(C)C	-9.9
CC1CCCCN1Cc1nc2c(c(=O)n(C)c(=O)n2C)n1CCc1ccccc1 (stereo not shown)	-23.2
NC(=O)Cc1ccc(Nc2nnc(-c3ccc(O)cc3)c3ccccc23)cc1	17.7

SMILES	hERG current change (%, negative = inhibition) at 10uM [%]
N#CC1=C2SCN(Cc3ccco3)CN2C(=O)CC1c1c(F)cccc1Cl (stereo not shown)	13.4
Cc1ccc(C)c(N2CCN(C(=O)c3cn(C)c4ccc(S(=O)(=O)N(C)C)cc4c3=O)CC2)c1	-4.85
CCSc1c(-c2ccccc2)nc2c(C)cccc2c1C(=O)O	12.4
CCOc1ccccc1C(=O)Nc1cc(Cl)ccc1O	14.7
Cc1ccc(-c2noc(CN(C(=O)Cc3ccccc3)C(C)C)n2)cc1	-8.68
O=C(COc1ccc(C(=O)Nc2ccc(Cl)cc2)cc1)NCc1ccccc1	0.389
O=c1c2sccc2n(Cc2cc(=O)n3ccccc3n2)c(=O)n1-c1ccccc1	-4.1
CC1CCCN(c2nc3c(c(=O)[nH]c(=O)n3C)n2Cc2ccccc2Cl)C1 (stereo not shown)	-8.17
CSc1ccccc1NC(=O)CN(c1cc(C)cc(C)c1)S(C)(=O)=O	1.05
CNc1nc(Sc2cccc(C(F)(F)F)c2)cc(C(F)(F)F)n1	31
Cc1cc(C)cc(NC(=S)Nc2ccccn2)c1	-8.14
COc1cccc(C(=O)Nc2c3c(nn2-c2cccc(C)c2C)CS(=O)(=O)C3)c1OC	-47.5
CN1c2ccccc2Oc2c(c(=O)n(C)c(=O)n2C)C1c1cccc([N+](=O)[O-])c1 (stereo not shown)	-15.5
CN(C(=O)COC(=O)c1cccs1)c1c(N)n(Cc2ccccc2)c(=O)[nH]c1=O	-10.8
CCc1cccc(NC(=O)CCc2nc(-c3cccs3)no2)c1	-12.4
COc1ccccc1NC(=O)C12CCC(C)(C(=O)C1)C2(C)C (stereo not shown)	14.8
O=C(COC(=O)C1CCN(S(=O)(=O)c2cccs2)CC1)Nc1ccc(F)cc1F	-39.2
CCCn1c(-c2cc(OC)c(OC)c(OC)c2)nc2c1c(=O)[nH]c(=O)n2Cc1ccccc1	5.09
Cc1nnc(SC(C)C#N)n1-c1ccccc1 (stereo not shown)	12.5
CS(=O)(=O)N(CC(=O)NCCSCc1ccccc1Cl)c1ccccc1F	-35.4
O=C(NCC(F)(F)F)Nc1nnc(C(F)(F)F)s1	-1.37
CC(C)CCN1CC(O)=C(c2nc(-c3ccc(Cl)cc3)cs2)C1=N	14.1

SMILES	hERG current change (%, negative = inhibition) at 10uM [%]
Cc1sc(NC(=O)c2ccco2)c(CN2CCN(c3ccccc3)CC2)c1C	7.18
CCCCC1=CC2=C(c3ccco3)C(=O)C(C)(OC(=O)c3ccc(OC)cc3)C(=O)C2=CN1CCN1CCOCC1 (stereo not shown)	5.5
O=C(NCc1ccco1)c1c(F)c(F)c(F)c(C(=O)NCc2ccco2)c1F	17.5
Cn1nnnc1SCC(=O)NCC(=O)c1ccccc1	-9.12
O=C(COC(=O)c1ccc[n+]([O-])c1)Nc1ccc(Cl)cc1[N+](=O)[O-]	-12.4
CCCCNC(=O)CCn1c(=O)c2ccccc2n(Cc2cc(C)ccc2C)c1=O	6.37
CCN1CCN(CC(O)COC(C)C)CC1.Cl (stereo not shown)	2.08
Clc1nc(-c2ccccc2)ncc1Oc1ccccc1	14.6
COc1ccc(/C=N/NC(=O)C2c3ccccc3-c3ccccc32)cc1	-2.98
Cc1ccc(Nc2ncnc3ccccc23)cc1.Cl	1.6
O=C(O)COc1ccccc1/C=N/NC(=O)CSc1nnc(SCc2cccc3ccccc23)s1	15.8
Cc1cccc(Nc2nc3c(S(=O)(=O)c4ccccc4)nnn3c3ccccc23)c1	17.6
Cc1ccccc1C(=O)N1CCN(c2ccc(N3CCOCC3)nn2)CC1	11.6
O=C(c1cccc(C(F)(F)F)c1)C1CCCN(C(=O)/C=C/c2cnc[nH]2)C1 (stereo not shown)	-18.9
CC(C)[C@H](NC(=O)c1ccccc1)C(=O)OCC(=O)N1CCCc2ccccc21	2.57
COC(=O)[C@@H](NC(=O)NC(C)CCc1ccccc1)C(C)C (stereo partly shown)	9.82
COc1ccc(C(=O)Nc2ccncc2)cc1[N+](=O)[O-]	10.8
O=C(Cn1cnc2ccccc2c1=O)N(Cc1ccco1)c1ccc(O)cc1	-3.58
CCC(=O)c1ccc(OC(=O)c2cccs2)cc1	2.63
CCc1ccc(/C(C)=N/NC(=O)C(O)c2ccccc2)s1 (stereo not shown)	16.5
CCCn1c(=O)c2ccccc2n2c(SCc3cc(=O)oc4ccc5ccccc5c34)nnc12	-2.87
Clc1ccc(CNc2nc(CN3CCOCC3)nc3scc(-c4ccccc4)c23)cc1	-9.73

SMILES	hERG current change (%, negative = inhibition) at 10uM [%]
N#Cc1c(Cl)cccc1N1CCC(C(N)=O)CC1	-1.76
O=C(Cc1c[nH]c2ccccc12)Nc1nccs1	0.956
CC1=NNC(=O)C1CCC(=O)N/N=C/c1c(Cl)cccc1Cl (stereo not shown)	11.8
COc1cc2[nH]c(=O)n(-c3cccc(Cl)c3)c(=O)c2cc1OC	19
Cn1cccc1CC(=O)NNC(=S)Nc1ccc(Cl)cc1	8.69
COC(=O)CC1SC(=O)NC1=Nc1ccc(C)cc1 (stereo not shown)	0.751
CCOC(=O)c1c(C)oc2ccc(NS(=O)(=O)c3ccc(C(=O)O)cc3)cc12	19.9
O=C(CN(C(=O)c1csnn1)c1ccccc1Cl)NC1CCCC1	3.04
COc1ccc(C(=O)CN2C3=NCCCN3c3ccccc32)cc1OC	-36.5
O=C(O)c1cc(NC(=O)c2ccc3c(c2)C(=O)N(Cc2cccnc2)C3=O)cc(C(=O)O)c1	2.23
CCCCCCCCNc1ncnc2ccccc12	-37.1
COc1ccc(N2CCN(C(CNC(=O)C(=O)NC3CC3)c3ccco3)CC2)cc1 (stereo not shown)	13.6
Cc1ccc(S(=O)(=O)CCC(=O)OCC(=O)N2CC(=O)Nc3ccccc32)cc1	-22.1
Cc1ccc(C(=O)NCCNC(=O)c2ccc(C)nc2)cc1	5.21
O=C(COc1ccccc1)Nc1cccc(-c2nc3ccccc3[nH]2)c1	-67
CCOc1ccc(NC(=O)COc2nsnc2N2CCCCC2)cc1	21.6
OC(COc1ccccc1)CN1CCCCCC1 (stereo not shown)	-4.43
COC(=O)c1ccc2nc(NC(=O)COC(=O)CSc3nc(C)cc(C)n3)sc2c1	17.4
CN1CCN(c2ccc(-c3ccnn3C(=O)Nc3cccc(C(F)(F)F)c3)cc2)CC1	0.251
Cc1cc(=O)nc2c3ccccc3n(CC(=O)NCCC3=CCCCC3)n12	-11.5
Cn1nc(C(=O)NCCc2ccc(Cl)cc2)c2c1-c1ccccc1S(=O)(=O)C2	-4.99
COc1ccc(NS(=O)(=O)c2cccc(C(=O)OCC(=O)Nc3cc(C)on3)c2)cc1	-11

From PMC4336329 (PLoS ONE, 2015)
